In this assay the test system is BDF1 mice, Adenocarcinoma 755 s.c., tumor weight T/C. In words: NCI In Vivo Anticancer Drug Screen. Data for tumor model Adenocarcinoma 755 (subcutaneous) in B6D2F1 (BDF1) mice. The settings on record: endpoint: mean tumor weight, higher = larger tumour. On the procedure:
The antitumor activity of compounds was measured in mice bearing transplantable tumors. Survival or tumor size were measured and the results are expressed as the measurement made in the treated group (T) divided by the measurement made in the vehicle treated control group (C). The tumor model used in this assay is Adenocarcinoma 755 (subcutaneous) in B6D2F1 (BDF1) mice

[1] abbreviates: dose: 30.0 mg/kg/injection, schedule: Q01DX011 (ip), vehicle: saline.
Setting [2] is: dose: 1.25 mg/kg/injection, schedule: Q01DX011 (ip), vehicle: methylcellulose (MC).
The mark [3] stands for this setting: dose: 100.0 mg/kg/injection, schedule: Q01DX011 (ip), vehicle: carboxymethylcellulose (CMC).
The mark [4] stands for this setting: dose: 3.7 mg/kg/injection, schedule: Q01DX011 (ip), vehicle: methylcellulose (MC).
The mark [5] stands for this setting: dose: 7.5 mg/kg/injection, schedule: Q01DX011 (ip), vehicle: methylcellulose (MC).
The mark [6] stands for this setting: dose: 15.0 mg/kg/injection, schedule: Q01DX011 (ip), vehicle: methylcellulose (MC).

Each structure is given as a SMILES string. Some entries of the source have several records that differ or are many. This is not the full list of results. An entry can have further records. Values given together are repeats across runs, samples, wells, individuals or studies.

In the case of `CCCCCCOP(=O)(N1CC1C)N1CC1C` (stereo not drawn), the T/C by setting is: (dose: 25.0 mg/kg/injection, schedule: Q01DX011 (ip), vehicle: saline) 53 % of control and 108 % of control; (dose: 50.0 mg/kg/injection, schedule: Q01DX011 (ip), vehicle: saline) 40 % of control, 44 % of control, 72 % of control.

Regarding `c1ccc(N2CCSCC2)cc1`, the T/C (dose: 27.0 mg/kg/injection, schedule: Q01DX011 (ip), vehicle: methylcellulose (MC)) is 36 % of control and 67 % of control. Take `C=CC(COC(C)=O)N1CC1` (stereo not drawn): the T/C by setting is: (dose: 7.5 mg/kg/injection, schedule: Q01DX011 (ip), vehicle: saline) 36 % of control and 74 % of control; (dose: 15.0 mg/kg/injection, schedule: Q01DX011 (ip), vehicle: saline) 49 % of control and 119 % of control; under setting [1], 18 % of control and 58 % of control. On to `CCOC1=C(N2CC2)C(=O)C(OCC)=C(N2CC2)C1=O`, for which the T/C (dose: 0.63 mg/kg/injection, schedule: Q01DX011 (ip), vehicle: methylcellulose (MC)) is 34 % of control and 89 % of control; the T/C under setting [2] was 2 % of control and 69 % of control. Consider `CC(CNC(=O)CCOS(C)(=O)=O)NC(=O)CCOS(C)(=O)=O` (stereo not drawn), for which the T/C (dose: 56.0 mg/kg/injection, schedule: Q01DX011 (ip), vehicle: carboxymethylcellulose (CMC)) is reported as 18 % of control, 23 % of control, 55 % of control. With `Cn1cnc([N+](=O)[O-])c1Sc1nc(N)nc2nc[nH]c12`, for the setting “dose: 0.5 mg/kg/injection, schedule: Q01DX011 (ip), vehicle: methylcellulose (MC)”, the T/C was 17 % of control and 48 % of control. Consider `CC(=O)OC1(C)CC(C)C(=O)C(C(O)CC2CC(=O)NC(=O)C2)C1` (stereo not drawn), for which the T/C by setting is: (dose: 1:1500.0 dilution, schedule: Q01DX006 (ip), vehicle: water) 69 % of control and 104 % of control; (dose: 1:3000.0 dilution, schedule: Q01DX006 (ip), vehicle: water) 79 % of control and 113 % of control; (dose: 1:4000.0 dilution, schedule: Q01DX006 (ip), vehicle: water) 50 % of control and 107 % of control; (dose: 1:10000.0 dilution, schedule: Q01DX006 (ip), vehicle: water) 60 % of control, 87 % of control, 100 % of control; (dose: 1:50000.0 dilution, schedule: Q01DX006 (ip), vehicle: water) 48 % of control, 89 % of control, 95 % of control. For `C[C@H]1C[C@H]2[C@@H]3CC[C@](O)(C(=O)CO)[C@@]3(C)C[C@H](O)[C@]2(F)[C@@]2(C)C=CC(=O)C=C12`, the T/C is, setting by setting: (dose: 3.0 mg/kg/injection, schedule: Q01DX011 (sc), vehicle: steriod suspending solution) 52 % of control and 83 % of control; (dose: 15.0 mg/kg/injection, schedule: Q01DX011 (sc), vehicle: steriod suspending solution) 18 % of control and 51 % of control. With `Cn1c(N)c(N=O)c(=O)n(C)c1=O`, the T/C reads like this: (dose: 700.0 mg/kg/injection, schedule: Q01DX011 (oral), vehicle: other) 89 % of control and 121 % of control; (dose: 1400.0 mg/kg/injection, schedule: Q01DX011 (oral), vehicle: other) 86 % of control and 116 % of control. As to `C[C@]12CCC(=O)C=C1CC[C@@H]1[C@@H]2[C@@H](O)C[C@@]2(C)[C@H]1CC[C@]2(O)C(=O)CF`, the T/C (dose: 25.0 mg/kg/injection, schedule: Q01DX011 (sc), vehicle: steriod suspending solution) is 20 % of control and 46 % of control. As to `CNc1nc(N)nc(Nc2ccc(I)cc2)c1N=O`, the T/C (dose: 50.0 mg/kg/injection, schedule: Q01DX011 (ip), vehicle: carboxymethylcellulose (CMC)) is listed as 27 % of control, 37 % of control, 111 % of control; the T/C (dose: 400.0 mg/kg/injection, schedule: Q01DX011 (ip), vehicle: carboxymethylcellulose (CMC)) is 19 % of control and 55 % of control. Consider `O=C(OCC1OC(n2cnc3c(=S)nc[nH]c32)C(OC(=O)c2ccc(Cl)cc2)C1OC(=O)c1ccc(Cl)cc1)c1ccc(Cl)cc1` (stereo not drawn), for which the T/C runs as follows: under setting [3], 4 % of control and 90 % of control; (dose: 200.0 mg/kg/injection, schedule: Q01DX011 (ip), vehicle: carboxymethylcellulose (CMC)) 6 % of control and 60 % of control. On to `CCCCOP(=O)(N1CC1C)N1CC1C` (stereo not drawn), for which the T/C is, setting by setting: (dose: 1.0 mg/kg/injection, schedule: Q01DX011 (ip), vehicle: saline) 71 % of control, 76 % of control, 98 % of control; (dose: 16.0 mg/kg/injection, schedule: Q01DX011 (ip), vehicle: saline) 32 % of control and 101 % of control.

With `C/C(=N/NC(=O)c1ccncc1)c1ccc(Cl)c(Cl)c1`, the T/C under setting [4] was 44 % of control and 93 % of control; the T/C under setting [5] is 51 % of control and 92 % of control; the T/C under setting [6] is 34 % of control and 102 % of control; the T/C (dose: 30.0 mg/kg/injection, schedule: Q01DX011 (ip), vehicle: methylcellulose (MC)) is 37 % of control and 80 % of control. For the compound `COCCCNS(=O)(=O)c1ncnc2nc[nH]c12`, the T/C (dose: 5.0 mg/kg/injection, schedule: Q01DX011 (ip), vehicle: saline) is 44 % of control and 90 % of control; the T/C (dose: 6.0 mg/kg/injection, schedule: Q01DX011 (ip), vehicle: carboxymethylcellulose (CMC)) was 52 % of control and 95 % of control; the T/C (dose: 10.0 mg/kg/injection, schedule: Q01DX011 (ip), vehicle: saline) was 45 % of control and 79 % of control. With `Cn1cnc([N+](=O)[O-])c1Sc1ncnc2nc[nH]c12`, the T/C under setting [2] was 43 % of control and 69 % of control. Take `COc1ccc(C(=O)OCC2OC(n3cnc4c(=S)nc[nH]c43)C(OC(=O)c3ccc(OC)cc3)C2OC(=O)c2ccc(OC)cc2)cc1` (stereo not drawn): the T/C under setting [3] is 40 % of control and 70 % of control. For the compound `C/C(=N\NC(=O)c1ccncc1)c1ccc(F)cc1`, the T/C runs as follows: under setting [4], 62 % of control and 93 % of control; under setting [5], 37 % of control and 91 % of control; under setting [6], 34 % of control and 78 % of control.

`O=S(=O)(Nc1ccccc1)c1ccc(C2CC3(Cl)C(Cl)=C(Cl)C2(Cl)C3(Cl)Cl)cc1` (stereo not drawn): the T/C (dose: 56.25 mg/kg/injection, schedule: Q01DX011 (ip), vehicle: methylcellulose (MC)) was 82 % of control and 110 % of control.

Regarding `O=C1CN(/N=C\c2ccc([N+](=O)[O-])o2)C(=O)N1`, the T/C (dose: 32.1 mg/kg/injection, schedule: Q01DX011 (ip), vehicle: carboxymethylcellulose (CMC)) was 59 % of control and 103 % of control.

With `O=P1(N(CCCl)CCCl)NCCCO1` (stereo not drawn), the T/C (dose: 15.33 mg/kg/injection, schedule: Q01DX011 (ip), vehicle: carboxymethylcellulose (CMC)) is 13 % of control and 68 % of control. For `CS(=O)(=O)OCCCCOS(C)(=O)=O`, the T/C reads like this: (dose: 13.33 mg/kg/injection, schedule: Q01DX011 (ip), vehicle: carboxymethylcellulose (CMC)) 72 % of control and 109 % of control; (dose: 20.0 mg/kg/injection, schedule: Q01DX011 (ip), vehicle: saline) 52 % of control, 79 % of control, 102 % of control; (dose: 30.0 mg/kg/injection, schedule: Q03DX004 (ip), vehicle: saline) 16 % of control and 82 % of control; (dose: 80.0 mg/kg/injection, schedule: Q01DX011 (sc), vehicle: saline) 11 % of control and 38 % of control. Turning to `c1ncc2[nH]cnc2n1`, the T/C reads like this: (dose: 54.13 mg/kg/injection, schedule: Q01DX011 (ip), vehicle: carboxymethylcellulose (CMC)) 62 % of control, 108 % of control, 124 % of control; (dose: 108.25 mg/kg/injection, schedule: Q01DX011 (ip), vehicle: carboxymethylcellulose (CMC)) 58 % of control and 109 % of control.

With `C/C(=N\NC(=O)c1ccncc1)c1ccc(Br)cc1`, the T/C (dose: 60.0 mg/kg/injection, schedule: Q01DX011 (ip), vehicle: methylcellulose (MC)) was 28 % of control and 61 % of control. Turning to `CN(C)[C@@H]1C(=O)C(C(=O)NCN(CCCl)CCCl)=C(O)[C@@]2(O)C(=O)C3=C(O)c4c(O)cccc4[C@@](C)(O)[C@H]3C[C@@H]12`, under setting [1], the T/C is 31 % of control and 61 % of control. For `C[C@@H]1C[C@H]2[C@@H]3CCC4=CC(=O)C=C[C@]4(C)[C@@]3(F)[C@@H](O)C[C@]2(C)[C@@]1(O)C(=O)CO`, the T/C reads like this: (dose: 1.75 mg/kg/injection, schedule: Q01DX011 (sc), vehicle: steriod suspending solution) 34 % of control, 63 % of control, 77 % of control; (dose: 3.5 mg/kg/injection, schedule: Q01DX011 (sc), vehicle: steriod suspending solution) 21 % of control, 32 % of control, 55 % of control. Take `CC(=O)OCC1OC(n2cnc3c(=O)[nH]cnc32)CC1OC(C)=O` (stereo not drawn): the T/C is 71 % of control and 99 % of control (dose: 30.0 mg/kg/injection, schedule: Q01DX011 (ip), vehicle: carboxymethylcellulose (CMC)); 78 % of control and 123 % of control (dose: 240.0 mg/kg/injection, schedule: Q01DX011 (ip), vehicle: carboxymethylcellulose (CMC)).

The values above are taken from PubChem BioAssay AID180 (DTP/NCI, 2004).
